The results in this text go back to PubChem BioAssay AID1240 (Sanford-Burnham Center for Chemical Genomics, 2008).

The campaign covered roughly 50,000 compounds. About 800 (1.6%) showed an effect of 50% or more. This is one part of the list.

In this test the target is Bcl-2-like protein 10 (Homo sapiens) (UniProt Q9HD36). The test can be described thus: TR3 peptide-Bcl-B binding displacers, biochemical primary FP assay, phenotype converters (AID 1240).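 Also: 0% = Bcl-B with tracer peptide and DMSO and 100% = tracer peptide lacking Bcl-B.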 Conditions: GST-Bcl-B / FITC-TR3 peptide fluorescence polarization; stronger effect = higher value; compound at 3.75 mg/L.
Chain of UniProt Q9HD36 (Q9HD36 whole entry, looked up): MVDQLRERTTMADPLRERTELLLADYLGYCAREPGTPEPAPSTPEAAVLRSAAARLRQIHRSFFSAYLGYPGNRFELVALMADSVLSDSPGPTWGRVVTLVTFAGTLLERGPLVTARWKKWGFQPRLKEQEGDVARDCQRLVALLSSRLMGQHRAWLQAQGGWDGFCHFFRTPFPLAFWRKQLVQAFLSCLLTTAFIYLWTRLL
Take `Cc1ccccc1/C=N/N1CCN(Cc2ccc(Cl)cc2)CC1`: the displacement was -4.1%.

Regarding `Cc1cc(=O)oc2cc3c(cc12)OCCN3`, the displacement was 13.2%.

Turning to `Cc1ccc2c(c1)-c1c(ssc1=S)C(C)(C)N2C(=O)Cc1ccccc1`, the displacement turned out to be 3%.

On to `CCCC(C)C1C(C#N)=C(N)Oc2cc(N)ccc21` (centres undefined), for which the displacement is -12.4%.

Regarding `CC1(c2ccccc2)CC(C)(C)N(C(=O)CN2CCOCC2)c2ccccc21` (centres undefined), the displacement was -10.7%.

`O=C(c1cccc(F)c1)c1ccc2c(c1)CCCO2`: the displacement is -0.6%.

In the case of `O=C1C(Cl)=CC(=NS(=O)(=O)c2ccccc2)C=C1Br`, the displacement came out at 24%.

Regarding `CC(=O)N/C(=N/c1nc(C)cc(C)n1)Nc1ccc(C)c(Cl)c1`, the displacement was -6.7%.

Regarding `CC(=O)CCc1c(C)[nH]c2ccc(Br)cc2c1=O`, the displacement was -1.4%.

In the case of `Cc1ccc(OCCOCCN2CCCC2)cc1`, the displacement stood at 7.4%.

`O=C1C(Cl)=C(Nc2ccc(F)cc2)C(=O)N1c1ccccc1Cl`: the displacement was 1.3%.

For `CCN(CC)c1ccc(N2C(=O)/C(=C/c3ccc(C(=O)OC)cc3)SC2=S)cc1`, the displacement was -10.6%.

For the compound `CN1/C(=C\C(=O)Nc2ccc(Br)cc2)c2ccccc2CC1(C)C`, the displacement is -0.7%.

As to `CC1CCN(C2=NC(=O)/C(=C/c3ccc(N(C)C)cc3)S2)CC1`, the displacement was determined as 157%.

Regarding `C=CCOc1ccc(/C=C2\SC(=S)N(C)C2=O)cc1OC`, the displacement came to 11.8%.

In the case of `COc1ccc(-c2nc3cc(NC(=O)c4ccco4)ccc3o2)cc1Cl`, the displacement was -13.9%.

Turning to `CCOC(=O)c1c(CSc2ccccc2)n(C)c2cc(Br)c(OC)c(O)c12`, the displacement was -4.3%.

On to `O=C(CSc1nnc2c(n1)[nH]c1ccccc12)OCN1C(=O)c2ccccc2C1=O`, for which the displacement was determined as 15.2%.

In the case of `Cc1ccc(-c2nn(-c3cc(N4CCN(C)CC4)ccc3[N+](=O)[O-])c(=O)c3ccccc23)cc1C`, the displacement was -5.5%.

For `CCOc1cc(C2C(C(=O)OC)=C(C)NC3=C2C(=O)c2ccccc23)ccc1OCc1cccc(F)c1` (centres undefined), the displacement worked out at 14.5%.

Take `CC(=O)CCc1oc2ccc(C)cc2c1-c1ccccc1`: the displacement is -5.4%.

`Cc1cccc(N2C(=O)/C(=C/c3ccccc3C(=O)O)SC2=S)c1C`: the displacement is 5.2%.

With `CC1(C)Cc2ccccc2C(NN=C2CCCC2)=N1`, the displacement is -3.6%.

Turning to `C=CCSc1nc2c(c(-c3ccc(Br)cc3)c1C#N)C(=O)CC(C)(C)C2`, the displacement is -7.9%.

Take `COc1ccc(-c2cc(CC(=O)c3ccccc3)cc(-c3ccc(OC)cc3)n2)cc1`: the displacement is 7.7%.

With `Cc1cc(C(=O)N/N=C/C=C/c2ccccc2)n[nH]1`, the displacement was -7.4%.

`O=C(COc1ccc(Cl)cc1Cl)Oc1ccccc1`: the displacement is -9.6%.

As for `Cc1ccc(NC(=O)c2ccco2)cc1Br`, the displacement is 2.2%.

With `CCN(CC)c1ccc(NC(=O)c2ccccc2C(F)(F)F)cc1`, the displacement is -4.4%.

Consider `Cc1cc(Cl)c2cc(C(=O)O)ccc2n1`, for which the displacement is 17.4%.

Turning to `CCOC(=O)c1c(C)sc(Sc2ccc(Cl)cc2[N+](=O)[O-])c1OC(C)=O`, the displacement is -10.4%.

As for `O=C1OC(c2ccc(Br)cc2)=C/C1=C/c1ccc(-c2ccccc2[N+](=O)[O-])o1`, the displacement is -4.7%.

Regarding `O=C(Nc1ccc(OC(F)(F)F)cc1)c1cccc(OCc2ccccc2)c1`, the displacement is 8.8%.

In the case of `CCNC(=O)CP(=O)(c1ccccc1)c1ccccc1`, the displacement is -4.8%.

For the compound `CCOC(=O)c1c(NC(=O)Cc2cccs2)sc(C)c1C`, the displacement was -4.1%.

Take `O=S(=O)(N=Nc1c(O)[nH]c2ccccc12)c1ccc2ccccc2c1`: the displacement is -3.7%.

For `CCN(CC)C(=O)Cn1c(O)c(N=NC(=O)c2ccc(C(C)(C)C)cc2)c2ccccc21`, the displacement is 17.9%.

Regarding `Cc1cccc(C2OC3(C(=O)c4ccccc4C3=O)C(c3ccc(Br)cc3)C23C(=O)c2ccccc2C3=O)c1` (centres undefined), the displacement stood at 14.1%.

For `COc1ccc(C(=O)Nc2ccc(C)cc2[N+](=O)[O-])cc1Cl`, the displacement was -1.6%.

With `c1ccc(CCSc2nc3ccccc3[nH]2)cc1`, the displacement was found to be 6.2%.

As for `Cc1ccc(S(=O)(=O)/N=C(\Nc2nc(C)cc(C)n2)Nc2ccccc2C)cc1`, the displacement was -2.3%.

As to `O=C(/C=C/c1cccc([N+](=O)[O-])c1)Nc1ccc(-c2nc3ncccc3o2)cc1`, the displacement was 45.3%.

On to `CC(C)N=C(NS(=O)(=O)c1ccccc1)c1ccccc1`, for which the displacement was determined as 11.8%.

On to `Cc1cccc(NC(=O)C2C(c3ccccc3)C2(Cl)Cl)c1C` (centres undefined), for which the displacement is -0.1%.

For `COC(=O)c1ccccc1NC(=O)c1cc2nc(-c3cccs3)cc(C(F)(F)F)n2n1`, the displacement was 4.4%.

With `CSc1nc(-c2ccccc2)nc2[nH]c(-c3ccccc3)cc(=O)c12`, the displacement is 44.4%.

For the compound `CC1=C([N+](=O)[O-])C(c2ccccc2Cl)NC(=O)N1C` (centres undefined), the displacement came to 2.3%.

With `CC(C)(C)NC(=O)c1cccc(C(=O)Nc2cccc(O)c2)c1`, the displacement was -3.2%.

Consider `CCOc1ccc2nc(SCC(=O)NCC(=O)c3ccccc3)sc2c1`, for which the displacement is -10.9%.

For the compound `COC(=O)[C@]1(C)C=C2C3=CC(=O)C4[C@@]5(C)CCC(O)C(C)(C)C5CC[C@@]4(C)[C@]3(C)CC[C@@]2(C)CC1` (some centres undefined), the displacement was -6%.

For `Cc1ccccc1C(=O)NNC(=O)c1ccc([N+](=O)[O-])cc1`, the displacement was -13.4%.

As to `COc1ccccc1/C=N/NC(=O)c1cc(C23CC4CC(CC(C4)C2)C3)[nH]n1`, the displacement stood at 2.2%.

Consider `Cc1cc(C)c(C)c(OCCCCn2ccnc2)c1`, for which the displacement is -9.1%.

As to `Cc1ccc(C(=O)Nc2cc(-c3nc4ncccc4o3)ccc2C)cc1`, the displacement was 37.2%.

As for `Cc1ccc(C(=O)N(Cc2ccccc2)c2ccccc2)cc1`, the displacement was -4%.

As to `CCOC(=O)C1CCN(S(=O)(=O)c2ccc(NC(C)=O)cc2)CC1`, the displacement turned out to be 3.2%.

For the compound `O=C(O)CC(Cc1ccc(Br)cc1)C(=O)O` (centres undefined), the displacement is -2.5%.

As for `COc1cccc(OCCNS(=O)(=O)c2ccc3ccccc3c2)c1`, the displacement was found to be 12.2%.

On to `CCOC(=O)c1cnn(-c2ccccc2)c1NC(=O)c1ccc([N+](=O)[O-])cc1`, for which the displacement was found to be 1.9%.

On to `C(=N\c1nc2ccccc2n1CCN1CCOCC1)/c1ccc2c(c1)OCO2`, for which the displacement amounted to 7.2%.

As to `COc1ccc(C2C3C(=O)N(c4ccccc4)C(=O)C3N3CCCN23)cc1` (centres undefined), the displacement amounted to 0%.

As for `Cc1ccc(OCC(=O)N/N=C\c2ccncc2)cc1`, the displacement came to 1.2%.

For the compound `COC(=O)C1=C(C)NC(=O)/C1=C\c1ccccc1`, the displacement is 11.9%.

In the case of `CCOc1ccc(C(=O)/C=C/c2ccc(C(=O)OC)cc2)cc1`, the displacement turned out to be 13.5%.

Regarding `Cc1ccccc1NC(=O)c1c(-c2c(F)cccc2Cl)noc1C`, the displacement amounted to 14.2%.

Turning to `O=C(COc1ccccc1Cl)N1CCN(c2ccc([N+](=O)[O-])cc2)CC1`, the displacement is -3.3%.

As for `O=C(Cc1ccccc1)Nc1nnc(CCc2ccccc2)s1`, the displacement came out at 5.1%.

With `Cc1ccc(CNC(=O)c2ccc([N+](=O)[O-])cc2)cc1`, the displacement worked out at 3.8%.

On to `CC1=C(C(=O)Nc2ccc(Br)cc2)C(c2ccc(F)cc2)NC(=O)N1` (centres undefined), for which the displacement came out at 3%.
